Test results taken from the supplement of paper PMC12217912.
The other results are listed elsewhere or left out. Sequences were assembled here from the parent chain. Inactive controls read about 0.05.

B1: TEV protease; numbered along this chain (parent)
chain: MGESLFKGPRDYNPISSSICHLTNESDGHTTSLYGIGFGPFIITNKHLFRRNNGTLVVQSLHGVFKVKDTTTLQQHLVDGRDMIIIRMPKDFPPFPQKLKFREPQREERICLVTTNFQTKSMSSMVSDTSCTFPSGDGIFWKHWIQTKDGQCGSPLVSTRDGFIVGIHSASNFTNTNNYFTSVPKNFMELLTNQEAQQWVSGWRLNADSVLWGGHKVFMVKPEEPFQPVKEATQL

Variants of: B1
Assay: raw area under fraction-flipped curve 0-4 h after induction (AUC4h, not background-subtracted), DNA-recorder readout of cleavage of the substrate (dimensionless); higher = more cleavage of the substrate by the protease variant
Details: temperature: 34 °C; time window: 0-4 h after rhamnose induction
Protocol: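 In vivo DNA recorder in E. coli TOP10(DE3) ΔrhaA at 34 °C. Each TEVp single-site mutant (parent TEVp 0) is paired with a single-site variant of the 7-mer TEVs (canonical ENLYFQ|S). The substrate sits between flexible linkers in a Bxb1-sfGFP-TEVs-SsrA fusion, so cleavage stabilises Bxb1 and speeds flipping of a recombination array, read by NGS. The value is the raw area under the fraction-flipped curve over 0-4 h after rhamnose induction (AUC4h), with ≥20 reads per time point. It is not background-subtracted; inactive controls average about 0.047.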
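Further: Bxb1 expression induced with 0.2% (w/v) L-rhamnose at OD600 near 0.5, cultures sampled hourly, flipped fraction per protease–substrate barcode pair counted by paired-end Illumina sequencing.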

Variant	area with substrate EALYFQS	area with substrate ECLYFQS	area with substrate EDLYFQS	area with substrate EELYFQS	area with substrate EFLYFQS	area with substrate EGLYFQS	area with substrate EHLYFQS	area with substrate EILYFQS	area with substrate EKLYFQS	area with substrate ELLYFQS	area with substrate EMLYFQS	area with substrate EPLYFQS	area with substrate EQLYFQS	area with substrate ERLYFQS	area with substrate ESLYFQS	area with substrate ETLYFQS	area with substrate EVLYFQS	area with substrate EWLYFQS	area with substrate EYLYFQS
MGESLFKGPRDYNPISSSICHLTNESDGHTTSLYGIGFGPFIITNKHLFRRNNGTLVVQSLHGVFKVKDTTTLQQHLVDGRDMIIIRMPKDFPPFPQKLKFREPQREERICLVTTNFQTKSMWSMVSDTSCTFPSGDGIFWKHWIQTKDGQCGSPLVSTRDGFIVGIHSASNFTNTNNYFTSVPKNFMELLTNQEAQQWVSGWRLNADSVLWGGHKVFMVKPEEPFQPVKEATQL [S123W]	0.106	0.116	0.113	0.127	0.137	0.102	0.114	0.1	0.117	0.127	0.0973	0.133	0.121	0.105	0.102	0.106	0.0854	0.0817	0.134
MGESLFKGPRDYNPISSSICHLTNESDGHTTSLYGIGFGPFIITNKHLFRRNNGTLVVQSLHGVFKVKDTTFLQQHLVDGRDMIIIRMPKDFPPFPQKLKFREPQREERICLVTTNFQTKSMSSMVSDTSCTFPSGDGIFWKHWIQTKDGQCGSPLVSTRDGFIVGIHSASNFTNTNNYFTSVPKNFMELLTNQEAQQWVSGWRLNADSVLWGGHKVFMVKPEEPFQPVKEATQL [T72F]	0.0817	0.0825	0.113	–	0.0995	0.0774	–	0.0735	0.0587	0.071	0.0932	0.0969	0.0985	–	0.0847	0.093	–	0.0618	0.0863
MGESLFKGPRDYNPISSSICHLTNESDGHTTSLYGIGFGPFIITNKHLFRRNNGTKVVQSLHGVFKVKDTTTLQQHLVDGRDMIIIRMPKDFPPFPQKLKFREPQREERICLVTTNFQTKSMSSMVSDTSCTFPSGDGIFWKHWIQTKDGQCGSPLVSTRDGFIVGIHSASNFTNTNNYFTSVPKNFMELLTNQEAQQWVSGWRLNADSVLWGGHKVFMVKPEEPFQPVKEATQL [L56K]	0.0558	0.0466	0.0342	–	–	0.0501	0.0532	–	0.0441	0.0496	0.12	0.0469	0.0544	0.0434	0.0586	–	0.0332	–	–
MGESLFKGPRDYNPISSSICHLTNESDGHTTSLYGIGFGPFIITNKHLFRRNNGTLVVQSLHGVFKVKDTTTLQQHLVDGRDMIIIRMPKDFPPFPQKLKFREPQREERICLVTTNFQTKSMSSMVSDTSCTFPSGDGIFWKHWIQTKDGQCGSPLVSTMDGFIVGIHSASNFTNTNNYFTSVPKNFMELLTNQEAQQWVSGWRLNADSVLWGGHKVFMVKPEEPFQPVKEATQL [R160M]	0.108	0.0912	–	–	–	0.0951	–	–	0.109	–	–	–	–	–	–	–	–	–	–
MGESLFKGPRDYNPISSSICHLTNESDGHTTSLYGIGFGPFIITNKHLFRRNNGTLVVQSLHGVFKVKDTTTLQQHLVDGRDMIIIRMPKDFPPFPQKLKFREPQREERICLVTTNFQTKSMSSMVSDTSCTFPSGDGIFWKHWIQTKDGQCGSPLVSTRDGFIVGIHSASNFTNTNNYFTSVPKNFMELLTNQEAQQWVSCWRLNADSVLWGGHKVFMVKPEEPFQPVKEATQL [G202C]	0.0579	–	0.0848	–	–	–	–	–	–	–	–	–	0.0765	0.0545	0.0716	–	–	–	–
MGESLFKGPRDYNPISSSICHLTNESDGHTTSLYGIGFGPFIITNKHLFRRNNGTLVVQSLHWVFKVKDTTTLQQHLVDGRDMIIIRMPKDFPPFPQKLKFREPQREERICLVTTNFQTKSMSSMVSDTSCTFPSGDGIFWKHWIQTKDGQCGSPLVSTRDGFIVGIHSASNFTNTNNYFTSVPKNFMELLTNQEAQQWVSGWRLNADSVLWGGHKVFMVKPEEPFQPVKEATQL [G63W]	0.101	0.0963	0.108	0.135	0.0868	0.0883	0.0799	0.0847	0.124	0.0963	0.0932	0.101	0.0997	0.0773	0.0892	0.0938	–	0.0754	0.0744
MGESLFKGPRDYNPISSSICHLTNESDGHTTSLYGIGFGPFIITNKHLFRRNNGTLVVQSLHGVFKVKDTTTLQQHLVDGRDMIIIRMPKDFPPFPQKLKFREPQREERICLVTTNFQTKSMSSMVSDTSCTFPSGDGIFWKHWIQTKDGQCGSPLVSTRDGFIVGIHSASNFTNTNNYFTSVPKNFMELLTNQEAQQWVSGWRLNADSVLWGGHKVFMVKPELPFQPVKEATQL [E224L]	0.129	0.0981	0.112	–	0.129	0.111	0.0537	–	0.113	0.0946	0.108	0.137	0.0959	–	0.0975	0.0952	–	–	–
MGESLFKGPRDYNPISSSICHLTNESDGHTTSLYGIGFGPFIITNKHLFRRNNGTLVVQSLHGVFKVKDTTTLQQHLVDGRDMIIIRMPKDFPPFPQKLKFREPQREERICLVTTNFQTKSMSSMVSDTSCTFPSGDGIFWKHWIQTKDGQCGSPLVSTRDGFIVGIHSASNFLNTNNYFTSVPKNFMELLTNQEAQQWVSGWRLNADSVLWGGHKVFMVKPEEPFQPVKEATQL [T174L]	0.149	0.09	–	–	–	–	–	0.0918	–	–	–	0.0855	0.11	0.0555	–	–	–	–	–
MGESLFKGPRDYNPISSSICHLTNESDGHTTSLYGIGFGPFIITNKHLFRRNNGTLVVQSLHGVFKVKDTTTLQQHFVDGRDMIIIRMPKDFPPFPQKLKFREPQREERICLVTTNFQTKSMSSMVSDTSCTFPSGDGIFWKHWIQTKDGQCGSPLVSTRDGFIVGIHSASNFTNTNNYFTSVPKNFMELLTNQEAQQWVSGWRLNADSVLWGGHKVFMVKPEEPFQPVKEATQL [L77F]	0.0663	0.0616	0.0689	0.0687	0.0238	0.0521	0.0733	0.0614	0.122	0.0662	0.0532	0.0672	0.0607	0.0619	0.0611	–	0.0801	0.0639	0.0657
